This is an account of results in PubChem BioAssay AID1745853 (National Center for Advancing Translational Sciences (NCATS), 2022).

The list shows a part of the results. Further columns of the screen follow, without active or inactive calls.

What all share (experiment): Primary Screen for Target Class Profiling of Small Molecule Inhibitors of Methyltransferases
For assay [1], the target named is Glycine N-methyltransferase (Homo sapiens) (UniProt Q14749). As to conditions: purified enzyme, MTase-Glo SAH luminescence; measured here: GNMT inhibition; at 40 µM; stronger effect = lower value. The method, boiled down: (§1)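 Each enzyme was reacted with SAM and its substrate, with compounds tested once at 40 uM; SAH formed was read by MTase-Glo luminescence.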
Assay [2] concerns the target Guanidinoacetate N-methyltransferase (Homo sapiens) (UniProt Q14353). As to conditions: purified enzyme, MTase-Glo SAH luminescence; measured here: GAMT inhibition; at 40 µM; stronger effect = lower value. The method, boiled down: as §1
In assay [3] the target is Histamine N-methyltransferase (Homo sapiens) (UniProt P50135). As to conditions: purified enzyme, MTase-Glo SAH luminescence; measured here: HNMT inhibition; at 40 µM; stronger effect = lower value. The procedure, abridged: as §1
Assay [4] concerns the target Nicotinamide N-methyltransferase (Homo sapiens) (UniProt P40261). As to conditions: purified enzyme, MTase-Glo SAH luminescence; measured here: NNMT inhibition; at 40 µM; stronger effect = lower value. The method, boiled down:
as §1

Assay [5] addresses Phenylethanolamine N-methyltransferase (Homo sapiens) (UniProt P11086). As to conditions: purified enzyme, MTase-Glo SAH luminescence; measured here: PNMT inhibition; at 40 µM; stronger effect = lower value. The method, boiled down: as §1
% is set by controls: 0 for no effect and ±100 for the full control effect.

For the compound `COCCC1(NC(=O)C2CC2)CCN(S(=O)(=O)c2cc(OC)ccc2OC)CC1`, the activity change, negative = inhibition in assay [1] amounted to 2.63%; in assay [2] it was 1.8%; in assay [3], 14.6%; in assay [4] it was 6%; in assay [5] it was 7.77%.
On the same counts, the results for `Cc1cc(C)cc(NS(=O)(=O)c2cc3c(cc2Cl)n(C)c(=O)n3C)c1` are 12.6%, 0%, 7.41%, 7.39% and 11%.
In the same order, the values of `CCC(C)NC(=O)Cn1ccc2cc(S(=O)(=O)N3CCCC3)ccc21` (stereo not given) are 7.39%, 0%, 4.51%, 3.34% and 2.03%.
As to `COc1ccc(F)cc1-c1cc(NC(=O)[C@@H]2CCCNC2)ncc1Cl`, the activity change, negative = inhibition in assay [1] was -13%; in assay [2], -7.37%; in assay [3], -12.6%; in assay [4] it was -34.6%; in assay [5] it was -1.43%.
On the same counts, the results for `Nc1nc2c(ncn2C2OC3COP(=O)(O)OC3C2O)c(=O)[nH]1` (stereo not given) are -2.29%, 7.58%, -3.04%, -16.5% and -10.3%.
In the same order, the values of `CC1(C(=O)NCc2ccccc2)Cn2c(cc3ccccc32)C(=O)N1Cc1ccccc1Br` (stereo not given) are -8.81%, -0.24%, -4.39%, -15.6% and -4.78%.
As to `CCc1ccccc1NC(=O)Cn1c(=O)oc2cc(S(=O)(=O)N3CCCC3)ccc21`, the activity change, negative = inhibition in assay [1] is 0.498%; in assay [2], 5.53%; in assay [3], 0.073%; in assay [4] it was 7.23%; in assay [5], -1.05%.
On the same counts, the results for `CNC(=O)[C@@H]1CN(C(=O)CCc2cccc(OC)c2)C[C@H]1c1n[nH]c(C)n1` are 0.138%, 1.36%, 1.81%, 5.76% and 5.16%.
On the same counts, the results for `Cc1ccc(C)c(-c2cc(C(=O)N3CCCC3c3nncn3C(C)C)[nH]n2)c1` (stereo not given) are -3.11%, -2.88%, -0.582%, -7.92% and -14.5%.
On the same counts, the results for `O=C(OC1C=C(CO)C2C(OC3OC(CO)C(O)C(O)C3O)OC=CC12O)c1ccc(O)cc1` (stereo not given) are -1.78%, -4.53%, 4.1%, -13.9% and -1.86%.
As to `CC1(C(=O)NC2CCCCCCC2)Cn2c(ccc2-c2ccco2)C(=O)N1CCCN1CCOCC1` (stereo not given), the activity change, negative = inhibition came out at 0.604% in assay [1]; 0.088% in assay [2]; 8.51% in assay [3]; 7.47% in assay [4]; 2.23% in assay [5].
For `O=C1CCC(C(=O)N2CCOCC2)CN1CCCc1ccccc1` (stereo not given), the activity change, negative = inhibition in assay [1] was -1.54%; in assay [2] it was -0.548%; in assay [3], 2.13%; in assay [4] it was 0.874%; in assay [5], -7.15%.
For `O=C(CSc1nnnn1-c1ccccc1)Nc1ccc2[nH]c(=O)[nH]c2c1`, the activity change, negative = inhibition is -7.36% in assay [1]; 0% in assay [2]; -3.81% in assay [3]; -10.8% in assay [4]; -10.6% in assay [5].
On the same counts, the results for `CC(C)[C@@H]1CC[C@@H](C)C[C@@H]1P(=O)(c1ccccc1)c1ccccc1` are -3.1%, 3%, -5.25%, -9.43% and 1.71%.
In the same order, the values of `COc1ccc2cc3n(c2c1)CC(C)(C(=O)NC1CCCCC1)N(Cc1ccc(Cl)cc1)C3=O` (stereo not given) are 3.04%, 0.429%, 4.43%, 7.74% and -1.36%.
On the same counts, the results for `Cc1cccc(-c2n[nH]n3c2nc(=O)c2ccc(C(=O)NCc4ccc(Cl)cc4)cc23)c1` are -23.3%, 0.072%, -0.458%, -11.1% and -3.78%.
On to `O=C(CSc1nnc2n(CCc3ccccc3)c(=O)c3ccccc3n12)Nc1cccc(Cl)c1`, for which the activity change, negative = inhibition in assay [1] is -2.29%; in assay [2], 2.77%; in assay [3], 2.81%; in assay [4] it was -1.07%; in assay [5] it was -3.23%.
In the same order, the values of `CCC(Nc1ncnc2nc[nH]c12)c1nc2cccc(F)c2c(=O)n1-c1ccccc1` (stereo not given) are -5.05%, -3.3%, 5.76%, -18.6% and 4.3%.
On the same counts, the results for `C[C@@H]1CCC2C(C)(C)[C@H](O)CC[C@]2(C)[C@@]12Cc1c(O)cc3c(c1O2)CN([C@@H](CCC(=O)O)C(=O)O)C3=O` (stereo not given in full) are 5.28%, 3.52%, 8.54%, -11.5% and 0.317%.
As to `CC1C(=O)CC2C3C(O)CC(C(=O)O)C12CC3(C)C` (stereo not given), the activity change, negative = inhibition is 4.78% in assay [1]; 3.52% in assay [2]; 0.661% in assay [3]; -8.51% in assay [4]; 4.93% in assay [5].
Consider `CCC(C)C(=O)OC[C@H]1O[C@H](O[C@H]2O[C@H](CO)[C@@H](O)[C@H](O)[C@H]2O)[C@H](O)[C@@H](O)[C@@H]1O` (stereo not given in full), for which the activity change, negative = inhibition was -0.268% in assay [1]; 2.93% in assay [2]; 0.65% in assay [3]; -9.71% in assay [4]; 3.97% in assay [5].
On the same counts, the results for `COc1cc(C(=O)OC[C@@]2(O)CO[C@@H](O[C@H]3[C@H](Oc4ccc(O)cc4)O[C@H](CO)[C@@H](O)[C@@H]3O)[C@@H]2O)cc(OC)c1O` are -0.758%, -6.24%, -1.08%, -16.2% and 1.26%.
In the same order, the values of `CC(NC(=O)CCc1nnc2n(Cc3ccccc3)c(=O)c3ccccc3n12)c1ccccc1` (stereo not given) are -7.22%, 0.121%, 1.69%, 7.98% and 2.42%.
In the same order, the values of `CCOc1ccccc1NC(=O)N1CCn2c(C)ccc2C1C(C)C` (stereo not given) are 13.1%, 0%, -2.89%, -1.78% and 2.7%.
Turning to `CC1CCCC(NC(=O)C2(C)Cn3c(cc4sccc43)C(=O)N2Cc2cccc(F)c2)C1C` (stereo not given), the activity change, negative = inhibition in assay [1] turned out to be 5.65%; in assay [2], 0%; in assay [3], 6.45%; in assay [4] it was 2.54%; in assay [5] it was 1.8%.
Consider `COC(=O)N1CCN(Cc2cc(=O)c3cc(F)ccc3[nH]2)CC1`, for which the activity change, negative = inhibition was -5.94% in assay [1]; -14.5% in assay [2]; -3.45% in assay [3]; -9.02% in assay [4]; -6.13% in assay [5].
In the same order, the values of `C=C(C(=O)O)C1CC(O)C2(C)CCCC(C)(O)C2C1` (stereo not given) are 0%, 5.94%, 8.85%, -5.61% and 3.67%.
On the same counts, the results for `Cc1ccc(CNC(=O)N2Cc3c(sc4c3CCCC4)-n3cccc3C2c2ccccc2)cc1` (stereo not given) are -7.77%, -6.81%, 0.575%, -11.8% and -5.45%.
In the case of `CCCn1c(=O)c2ccc(C(=O)NC(C)CC)cc2n2c(=O)n(CC(=O)Nc3cccc(C)c3)nc12` (stereo not given), the activity change, negative = inhibition in assay [1] was -0.69%; in assay [2], 4.65%; in assay [3] it was 2.04%; in assay [4], 1.31%; in assay [5], 0.525%.
As for `COc1ccccc1CNC(=O)C1c2c(n(C)c3ccccc23)SCC(=O)N1c1cc(F)ccc1F` (stereo not given), the activity change, negative = inhibition in assay [1] came out at 15.6%; in assay [2], 0.63%; in assay [3], 2.71%; in assay [4], 7.66%; in assay [5] it was 11.2%.
On the same counts, the results for `CC1(C)CC[C@]2(C(=O)O[C@@H]3O[C@H](CO)[C@@H](O)[C@H](O)[C@H]3O)CC[C@]3(C)C(=CCC4[C@@]5(C)C[C@@H](O)[C@H](O)C(C)(C)C5CC[C@]43C)C2[C@@H]1O` (stereo not given in full) are -5.13%, 2.01%, 5.36%, -10.4% and 0.521%.
In the same order, the values of `COc1cccc(-c2cn3c(n2)N(C(=O)Cc2cccs2)CCC3)c1` are -5.27%, -8.66%, -35.9%, -16.9% and -11.9%.
In the same order, the values of `CC(C)NC(=O)c1ccc2c(=O)n(Cc3ccccc3)c3nnc(SCC(N)=O)n3c2c1` are 7.28%, 0.452%, 11.7%, 12.8% and 10.2%.
As for `N#C/C(=C\c1ccc(O)c(O)c1)C(=O)c1ccc(O)c(O)c1`, the activity change, negative = inhibition is -39.4% in assay [1]; -7.76% in assay [2]; -11.2% in assay [3]; -17.2% in assay [4]; -10.1% in assay [5].
In the same order, the values of `NC(=O)C(O[C@@H]1O[C@H](CO[C@@H]2O[C@H](CO)[C@@H](O)[C@H](O)[C@H]2O)[C@@H](O)[C@H](O)[C@H]1O)c1ccccc1` (stereo not given in full) are 0%, 2.11%, 2.7%, -9.48% and 4%.
On the same counts, the results for `CC(=O)Nc1cccc(-c2cc3c(cn2)CN(Cc2ccccc2)CCN3)c1` are -10.3%, -5.57%, -93.5%, -40.7% and -39.1%.
